No constants are given. Whether binding was seen depends on the method and setting. Binding seen in cells or lysates may run through a third protein. Some results given as binding are weak or reduced against the parent protein; the word gives no strength. For some assays here: Sequences can lack the tags named with a protein.
Columns and labels:
[1] = biological target: Flag-tagged full-length CHD7 (human) (UniProt Q9P2D1); assay: co-IP; M2 beads; nucleic acids-free (Benzonase-treated) nuclear extracts from HEK293T cells overexpressing Flag-tagged full-length CHD7 or mock-transfected; washes with IP buffer containing 200 mM NaCl; western blot
[2] = biological target: T1, Flag-tagged truncated CHD7, N-terminal part (1-786 aa) (human) (UniProt Q9P2D1); assay: co-IP; cell lysates from HEK293T cells transfected with Flag-tagged truncated CHD7 constructs, precipitated with M2 beads; western blot
T1 sequence: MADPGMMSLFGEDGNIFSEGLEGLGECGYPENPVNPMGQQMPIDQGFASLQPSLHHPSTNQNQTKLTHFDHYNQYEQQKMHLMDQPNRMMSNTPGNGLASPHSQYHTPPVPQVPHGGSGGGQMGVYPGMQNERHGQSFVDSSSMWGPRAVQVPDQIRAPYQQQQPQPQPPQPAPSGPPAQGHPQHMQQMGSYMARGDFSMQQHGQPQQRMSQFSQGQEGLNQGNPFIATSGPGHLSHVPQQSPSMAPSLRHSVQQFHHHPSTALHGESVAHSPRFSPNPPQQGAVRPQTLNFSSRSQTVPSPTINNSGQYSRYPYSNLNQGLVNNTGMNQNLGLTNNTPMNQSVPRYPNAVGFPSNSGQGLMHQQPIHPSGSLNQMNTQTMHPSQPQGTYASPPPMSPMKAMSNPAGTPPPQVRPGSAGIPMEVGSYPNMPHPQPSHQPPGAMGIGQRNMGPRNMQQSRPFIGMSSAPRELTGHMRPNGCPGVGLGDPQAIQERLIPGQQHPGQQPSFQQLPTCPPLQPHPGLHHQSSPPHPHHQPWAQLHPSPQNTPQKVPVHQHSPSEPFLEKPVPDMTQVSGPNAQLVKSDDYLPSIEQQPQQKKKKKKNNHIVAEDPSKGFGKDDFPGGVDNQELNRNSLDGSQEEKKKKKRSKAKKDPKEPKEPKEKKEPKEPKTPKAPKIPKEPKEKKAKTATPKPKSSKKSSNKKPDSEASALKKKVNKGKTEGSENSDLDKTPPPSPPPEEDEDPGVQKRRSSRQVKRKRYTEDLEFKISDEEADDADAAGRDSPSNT

By UniProt entry, the sequences of proteins in these tests, tags left out.
UniProt Q02880: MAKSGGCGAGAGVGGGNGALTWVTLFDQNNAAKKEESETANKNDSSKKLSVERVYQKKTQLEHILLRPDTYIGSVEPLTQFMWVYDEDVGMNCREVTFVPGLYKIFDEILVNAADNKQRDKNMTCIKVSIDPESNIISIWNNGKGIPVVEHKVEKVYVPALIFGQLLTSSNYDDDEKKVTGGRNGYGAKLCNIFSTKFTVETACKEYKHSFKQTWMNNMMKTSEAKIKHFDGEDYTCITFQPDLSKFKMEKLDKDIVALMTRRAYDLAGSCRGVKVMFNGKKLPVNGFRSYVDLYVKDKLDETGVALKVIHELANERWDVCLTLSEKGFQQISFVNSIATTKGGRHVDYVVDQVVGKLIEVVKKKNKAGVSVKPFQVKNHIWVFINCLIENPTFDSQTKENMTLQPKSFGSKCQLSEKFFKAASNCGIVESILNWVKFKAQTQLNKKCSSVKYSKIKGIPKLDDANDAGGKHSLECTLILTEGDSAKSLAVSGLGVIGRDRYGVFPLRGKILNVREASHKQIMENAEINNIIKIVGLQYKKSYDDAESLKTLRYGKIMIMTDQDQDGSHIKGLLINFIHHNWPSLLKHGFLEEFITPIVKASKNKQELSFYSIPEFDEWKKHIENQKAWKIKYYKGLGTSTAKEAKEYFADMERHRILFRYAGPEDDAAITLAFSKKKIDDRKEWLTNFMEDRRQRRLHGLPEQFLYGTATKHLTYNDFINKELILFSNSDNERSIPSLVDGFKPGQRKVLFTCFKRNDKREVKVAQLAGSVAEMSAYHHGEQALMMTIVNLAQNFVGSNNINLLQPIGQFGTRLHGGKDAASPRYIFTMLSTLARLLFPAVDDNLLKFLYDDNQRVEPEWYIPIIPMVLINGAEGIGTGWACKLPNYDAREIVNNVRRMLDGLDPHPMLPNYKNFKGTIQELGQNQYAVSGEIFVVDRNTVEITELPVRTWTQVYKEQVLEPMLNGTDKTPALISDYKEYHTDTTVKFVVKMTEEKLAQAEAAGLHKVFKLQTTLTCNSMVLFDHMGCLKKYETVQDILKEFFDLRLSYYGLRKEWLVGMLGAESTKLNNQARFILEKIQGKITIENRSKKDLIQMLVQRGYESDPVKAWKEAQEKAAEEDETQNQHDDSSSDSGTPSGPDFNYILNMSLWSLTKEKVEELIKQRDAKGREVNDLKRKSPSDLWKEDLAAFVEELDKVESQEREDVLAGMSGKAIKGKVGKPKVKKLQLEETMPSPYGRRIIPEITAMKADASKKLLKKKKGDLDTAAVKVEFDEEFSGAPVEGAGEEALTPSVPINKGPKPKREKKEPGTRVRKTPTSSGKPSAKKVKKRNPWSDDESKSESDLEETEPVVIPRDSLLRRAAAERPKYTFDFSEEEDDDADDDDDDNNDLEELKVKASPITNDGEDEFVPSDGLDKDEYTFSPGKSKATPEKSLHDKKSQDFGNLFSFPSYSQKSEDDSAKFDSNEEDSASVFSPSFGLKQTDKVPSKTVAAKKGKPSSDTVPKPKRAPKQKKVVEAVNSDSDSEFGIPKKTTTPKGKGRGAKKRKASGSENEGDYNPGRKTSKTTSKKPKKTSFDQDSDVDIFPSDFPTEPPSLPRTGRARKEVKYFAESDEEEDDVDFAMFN
UniProt P11387: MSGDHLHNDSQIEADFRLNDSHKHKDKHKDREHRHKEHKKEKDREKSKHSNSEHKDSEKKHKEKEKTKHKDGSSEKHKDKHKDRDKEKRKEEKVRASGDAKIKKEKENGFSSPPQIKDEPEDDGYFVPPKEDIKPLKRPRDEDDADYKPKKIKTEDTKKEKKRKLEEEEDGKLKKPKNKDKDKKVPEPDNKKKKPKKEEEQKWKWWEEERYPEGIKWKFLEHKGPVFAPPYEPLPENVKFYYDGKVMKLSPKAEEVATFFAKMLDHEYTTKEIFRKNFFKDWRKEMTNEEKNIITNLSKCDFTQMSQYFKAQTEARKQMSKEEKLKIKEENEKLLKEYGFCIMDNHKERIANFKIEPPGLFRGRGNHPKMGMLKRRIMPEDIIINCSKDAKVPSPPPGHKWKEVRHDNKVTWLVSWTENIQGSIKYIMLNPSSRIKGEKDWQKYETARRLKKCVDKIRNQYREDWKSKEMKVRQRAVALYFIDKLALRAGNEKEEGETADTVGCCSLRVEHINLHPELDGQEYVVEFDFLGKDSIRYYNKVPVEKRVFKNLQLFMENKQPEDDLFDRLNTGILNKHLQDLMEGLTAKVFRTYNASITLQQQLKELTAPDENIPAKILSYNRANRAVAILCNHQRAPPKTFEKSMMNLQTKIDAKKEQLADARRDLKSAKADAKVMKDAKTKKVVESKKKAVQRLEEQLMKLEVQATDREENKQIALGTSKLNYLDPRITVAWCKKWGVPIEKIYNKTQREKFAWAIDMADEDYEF
UniProt Q9HCK8: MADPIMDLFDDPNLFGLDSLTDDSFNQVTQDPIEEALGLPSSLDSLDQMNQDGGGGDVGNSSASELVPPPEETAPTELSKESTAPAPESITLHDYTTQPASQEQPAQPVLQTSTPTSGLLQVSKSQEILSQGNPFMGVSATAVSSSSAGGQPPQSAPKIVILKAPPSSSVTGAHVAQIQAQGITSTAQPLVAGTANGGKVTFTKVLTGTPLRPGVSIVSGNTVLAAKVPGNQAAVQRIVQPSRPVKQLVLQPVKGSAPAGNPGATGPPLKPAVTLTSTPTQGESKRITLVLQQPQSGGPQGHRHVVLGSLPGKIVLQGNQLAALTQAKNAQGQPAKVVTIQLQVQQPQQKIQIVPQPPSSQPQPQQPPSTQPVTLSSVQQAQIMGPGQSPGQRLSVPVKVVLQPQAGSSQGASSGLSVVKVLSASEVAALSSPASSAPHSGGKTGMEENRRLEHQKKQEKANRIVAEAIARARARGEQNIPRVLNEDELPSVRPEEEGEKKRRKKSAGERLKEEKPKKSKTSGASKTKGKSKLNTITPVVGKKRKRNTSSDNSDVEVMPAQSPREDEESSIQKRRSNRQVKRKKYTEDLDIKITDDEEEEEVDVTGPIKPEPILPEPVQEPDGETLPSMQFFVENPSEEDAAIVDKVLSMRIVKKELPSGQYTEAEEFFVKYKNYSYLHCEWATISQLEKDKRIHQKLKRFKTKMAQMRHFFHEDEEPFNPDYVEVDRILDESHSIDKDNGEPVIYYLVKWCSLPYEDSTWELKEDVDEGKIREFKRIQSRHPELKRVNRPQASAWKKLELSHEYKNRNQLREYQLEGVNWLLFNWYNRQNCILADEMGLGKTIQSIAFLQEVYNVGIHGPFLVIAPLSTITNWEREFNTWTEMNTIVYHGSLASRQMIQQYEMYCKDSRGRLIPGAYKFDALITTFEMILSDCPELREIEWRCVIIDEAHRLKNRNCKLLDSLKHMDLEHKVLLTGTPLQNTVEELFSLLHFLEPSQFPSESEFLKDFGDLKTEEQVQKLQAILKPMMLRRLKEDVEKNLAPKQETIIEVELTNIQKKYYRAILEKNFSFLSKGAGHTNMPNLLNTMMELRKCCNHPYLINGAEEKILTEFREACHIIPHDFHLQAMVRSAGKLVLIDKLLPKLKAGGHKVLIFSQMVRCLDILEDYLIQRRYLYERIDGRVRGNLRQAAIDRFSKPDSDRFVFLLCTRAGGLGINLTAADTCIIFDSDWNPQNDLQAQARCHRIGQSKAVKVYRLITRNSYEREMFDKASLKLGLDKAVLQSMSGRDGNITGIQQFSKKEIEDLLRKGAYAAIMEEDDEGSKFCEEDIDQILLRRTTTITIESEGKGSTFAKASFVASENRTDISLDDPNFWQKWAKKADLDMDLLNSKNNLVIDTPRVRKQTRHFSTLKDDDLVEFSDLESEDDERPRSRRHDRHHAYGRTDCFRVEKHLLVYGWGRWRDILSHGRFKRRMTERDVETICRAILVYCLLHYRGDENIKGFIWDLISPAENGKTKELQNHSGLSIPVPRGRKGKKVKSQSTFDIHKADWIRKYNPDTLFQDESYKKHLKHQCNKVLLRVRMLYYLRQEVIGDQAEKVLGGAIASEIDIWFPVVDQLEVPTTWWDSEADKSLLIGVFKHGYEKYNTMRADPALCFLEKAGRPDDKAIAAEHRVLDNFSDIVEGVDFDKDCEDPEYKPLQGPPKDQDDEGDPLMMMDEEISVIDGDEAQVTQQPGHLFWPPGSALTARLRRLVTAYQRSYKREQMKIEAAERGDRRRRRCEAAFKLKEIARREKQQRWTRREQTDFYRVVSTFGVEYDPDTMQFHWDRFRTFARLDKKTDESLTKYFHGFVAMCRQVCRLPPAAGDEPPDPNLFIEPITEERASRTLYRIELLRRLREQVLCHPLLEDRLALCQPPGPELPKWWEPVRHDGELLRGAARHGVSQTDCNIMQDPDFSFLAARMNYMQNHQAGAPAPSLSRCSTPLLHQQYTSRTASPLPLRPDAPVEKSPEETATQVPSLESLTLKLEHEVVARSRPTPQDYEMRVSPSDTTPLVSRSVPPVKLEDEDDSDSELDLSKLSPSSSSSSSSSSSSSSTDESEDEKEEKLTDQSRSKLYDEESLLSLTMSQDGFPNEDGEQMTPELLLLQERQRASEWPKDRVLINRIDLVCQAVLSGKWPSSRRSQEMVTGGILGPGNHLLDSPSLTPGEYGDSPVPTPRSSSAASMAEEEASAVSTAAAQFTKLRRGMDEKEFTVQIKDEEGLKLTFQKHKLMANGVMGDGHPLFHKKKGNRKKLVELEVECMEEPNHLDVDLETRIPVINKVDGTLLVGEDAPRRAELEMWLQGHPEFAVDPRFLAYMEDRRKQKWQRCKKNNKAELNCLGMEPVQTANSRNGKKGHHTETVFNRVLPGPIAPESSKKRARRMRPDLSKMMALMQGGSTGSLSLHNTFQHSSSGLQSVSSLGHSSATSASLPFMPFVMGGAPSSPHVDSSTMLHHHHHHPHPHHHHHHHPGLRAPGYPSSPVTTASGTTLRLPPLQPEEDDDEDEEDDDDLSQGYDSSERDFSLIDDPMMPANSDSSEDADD
UniProt P12956: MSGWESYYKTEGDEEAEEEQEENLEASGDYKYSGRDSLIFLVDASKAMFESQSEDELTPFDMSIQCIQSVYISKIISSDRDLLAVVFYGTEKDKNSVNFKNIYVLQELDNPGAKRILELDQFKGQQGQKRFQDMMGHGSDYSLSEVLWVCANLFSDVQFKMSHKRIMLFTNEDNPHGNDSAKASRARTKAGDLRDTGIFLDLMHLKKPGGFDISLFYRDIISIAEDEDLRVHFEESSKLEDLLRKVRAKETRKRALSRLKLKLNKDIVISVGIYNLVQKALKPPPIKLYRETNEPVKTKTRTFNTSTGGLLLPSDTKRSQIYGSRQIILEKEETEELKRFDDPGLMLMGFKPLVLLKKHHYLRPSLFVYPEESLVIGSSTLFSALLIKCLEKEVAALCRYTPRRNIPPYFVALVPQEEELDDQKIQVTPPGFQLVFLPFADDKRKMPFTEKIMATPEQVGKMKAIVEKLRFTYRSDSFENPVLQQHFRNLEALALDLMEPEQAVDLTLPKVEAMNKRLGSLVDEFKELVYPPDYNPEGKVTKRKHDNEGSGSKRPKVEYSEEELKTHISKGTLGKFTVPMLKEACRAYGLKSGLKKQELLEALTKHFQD
UniProt P09874: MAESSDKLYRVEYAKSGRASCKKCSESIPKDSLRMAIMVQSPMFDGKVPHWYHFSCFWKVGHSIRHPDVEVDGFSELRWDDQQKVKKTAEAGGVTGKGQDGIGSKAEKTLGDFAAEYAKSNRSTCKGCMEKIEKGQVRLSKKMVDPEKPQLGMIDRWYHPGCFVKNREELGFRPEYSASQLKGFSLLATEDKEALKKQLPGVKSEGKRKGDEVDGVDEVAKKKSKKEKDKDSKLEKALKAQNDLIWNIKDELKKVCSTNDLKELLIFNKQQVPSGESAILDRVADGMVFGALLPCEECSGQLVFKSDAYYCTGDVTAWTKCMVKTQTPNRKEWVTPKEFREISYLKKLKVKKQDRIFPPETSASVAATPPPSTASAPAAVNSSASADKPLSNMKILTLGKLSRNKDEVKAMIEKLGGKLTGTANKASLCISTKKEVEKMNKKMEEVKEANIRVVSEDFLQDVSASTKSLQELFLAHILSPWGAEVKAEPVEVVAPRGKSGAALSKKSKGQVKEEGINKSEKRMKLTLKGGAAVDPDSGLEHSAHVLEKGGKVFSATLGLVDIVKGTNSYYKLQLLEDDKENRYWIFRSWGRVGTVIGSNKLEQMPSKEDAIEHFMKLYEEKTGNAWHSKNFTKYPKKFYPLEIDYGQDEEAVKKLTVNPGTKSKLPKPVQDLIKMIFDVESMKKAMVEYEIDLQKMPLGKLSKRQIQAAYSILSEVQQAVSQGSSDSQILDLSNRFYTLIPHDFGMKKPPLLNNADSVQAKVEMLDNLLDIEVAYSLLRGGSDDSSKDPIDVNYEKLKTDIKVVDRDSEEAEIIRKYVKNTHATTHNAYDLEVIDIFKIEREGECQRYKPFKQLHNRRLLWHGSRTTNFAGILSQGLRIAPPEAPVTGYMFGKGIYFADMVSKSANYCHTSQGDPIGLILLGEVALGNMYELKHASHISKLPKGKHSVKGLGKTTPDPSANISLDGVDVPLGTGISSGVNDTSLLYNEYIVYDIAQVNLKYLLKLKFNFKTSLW

[3] = biological target: TOP2B (DNA topoisomerase IIb), endogenous in HEK293T (human (endogenous in HEK293T)) (UniProt Q02880); assay: co-IP; endogenous proteins, HEK293T cell lysates immunoprecipitated with an antibody against Top2b; co-precipitated Chd7 by western blot

Substance: BRG1, endogenous in HEK293T (from UniProt P51532 1-1647)
- binding [1]: binds

Substance: TOP1, endogenous in HEK293T (from UniProt P11387 1-765) (enzyme)
- binding [1]: binds

Substance: CHD8, endogenous in HEK293T (from UniProt Q9HCK8 1-2581)
- binding [1]: binds

Substance: KU70, endogenous in HEK293T (from UniProt P12956 1-609)
- binding [2]: no binding

Substance: PARP1, endogenous in HEK293T (from UniProt P09874 1-1014) (enzyme)
- binding [1]: binds

Substance: endogenous CHD7 (HEK293T) (from UniProt Q9P2D1 1-2997)
- binding [3]: binds

Substance: TOP2B (DNA topoisomerase IIb), endogenous in HEK293T (from UniProt Q02880 1-1626) (enzyme)
- binding [1]: binds
- binding [2]: binds

— publication PMC5364396
